Measurements reported in the supplement of paper PMC11417369.
± gives the standard deviation of the averaged measurements. Some of the results follow.

These sequences were tested on PfAP2-EXP AP2 domain (GST-tagged) (assay: gcPBM binding intensity (ln(normalized median fluorescence intensity)); higher = stronger DNA binding).
How it was run: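 For binding intensity, the highest Masliner-normalised natural-log median intensity across replicate spots of either probe orientation was taken. Protein bound to the array was stained with Alexa488 anti-GST antibody and scanned at 488 nm. The protein, GST-tagged P. falciparum DNA-binding domains from E. coli at about 25 μg on average, had been applied for 1 h to an Agilent 4 × 180k array of primer-extended double-stranded 36-bp intergenic genomic probes and negative controls.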

Sequence | gcPBM binding intensity (ln)
AAAAAAAAAAAAAAAACACACATATAGGTATAAATA [CACACA_site7528] | 8.54 ± 0.12
CACGCATATATACATACATGCATATATACATCCATG [TGCATGCA_site667] | 8.76 ± 0.24
TTCATATAACCTTATAGTACATAATTAAAAATATAA [XGTACX_site6328] | 8.48 ± 0.59
AACAGCATTATTTCTTATTTTTTTTTTGATATATTT [GTGCAC_negctrl_site114] | 8.43 ± 0.49
ATATCTATAATAAATACACACATTTATATAGATAAA [CACACA_site7518] | 8.19 ± 0.34
GTTATATTATTCATACGTACCTATATTTCTATTAAC [XGTACX_site3447] | 8.75 ± 0.099
AAACTTGACAGACACACACACACATATATAAAAAAA [CACACA_site757] | 8.61 ± 0.44
TTTTCCTTATATTATGCATGCAGGGTTTGACATTAT [TGCATGCA_site826] | 10.3 ± 0.34
ATGTGTTGGGAAAAGGCATGCACTTTTTTTTTTTTT [TGCATGCA_site707] | 8.89 ± 0.34
TGATAACCTCACAAATGTACGTACGGGGCTAGCATT [XGTACX_site4157] | 9.01 ± 0.52
ACACATACTAAAATGTTGTGAAATATGATAATGTGA [CACACA_negctrl_site851] | 8.55 ± 0.38
TTATAATAATAGAACTTTATGTAGAAAAAAGGAAAA [XGTACX_negctrl_site116] | 8.55 ± 0.6
ATATATTTTAAATATATTATTATTGCATTGTGAAAA [TGCATGCA_negctrl_site106] | 8.43 ± 0.26
CACAGACACGGACACACACACACACCCACATATATA [CACACA_site4355] | 8.73 ± 0.41
AAAAAAAAAAAAAAAACACACATATATATATATATA [CACACA_site2436] | 10.4 ± 0.11
TCTTAAAAAATAGGGACACGTAAATATAATATATAA [CACACA_negctrl_site554] | 8.73 ± 0.38
TATATATATATATATAGTACATATTAATTAATTTAT [XGTACX_site8198] | 10.1 ± 0.59
TGAATTTAGATATATACACACAAAAGTATATACAAT [CACACA_site2804] | 8.44 ± 0.35
TATATGTTTTATAGTACACACATAAATGGACATACT [CACACA_site2191] | 8.47 ± 0.26
ATATGTATTAAGTGTACACATATAATCTATCTTGTT [CACACA_site5329] | 8.71 ± 0.23
CCCACTAAAAAACACACACACACACCCATATATATA [CACACA_site6140] | 8.98 ± 0.31
TTTTTTTTATATAGTAGTACTAATTAGAATTTTTAT [XGTACX_site7476] | 8.34 ± 0.32
TAATGCCATAATACGTGTACTTAATATATTAGAACA [XGTACX_site5809] | 8.6 ± 0.39

Sequence | gcPBM binding intensity (ln)
TACATACATACATACACACATACATATGTATATATA [CACACA_site2480] | 9.09 ± 0.18
CTCAAATGTTATTGTAGTACCTAAAAAATATATTCT [XGTACX_site1970] | 8.37 ± 0.39
GTTGGTAGGCGGTACGGTACACGTAAAGTTTTTCTT [XGTACX_site7706] | 8.7 ± 0.38
ATAAATGACAAATTAACACACATATATTATATATAT [CACACA_site3899] | 8.51
ACCATATAAATAAACACACACACACGGATATAAATA [CACACA_site7157] | 8.73 ± 0.59
AACTCATAAAATAATGGTACACAAAAAAAATAAATA [XGTACX_site7648] | 8.86 ± 0.52
TTAGGCAAGGCGGGGGGTACGTTTTTATATAATTAT [XGTACX_site8029] | 10.7 ± 0.18
TTAGATTTATAAGTGTGTACGTAAAATACTTAATAA [XGTACX_site8246] | 8.35 ± 0.31
CAAGGAACCAGACACACACACATAAATGTATTTATA [CACACA_site6491] | 8.39 ± 0.48
TTTTTTTTTTTCTTTTGTACGTATAAAATTATATAA [XGTACX_site2453] | 8.59 ± 0.23
TTTTTATCTAATCTAATATTATATTATACATATAAT [XGTACX_negctrl_site275] | 8.22 ± 0.34
TTTATGGAATAATCACGTACACACAAGAAAAAAAAA [XGTACX_site985] | 8.84 ± 0.46
TGTGTGTGCTTATTTTGTACATATTAGGTAAATATT [XGTACX_site6329] | 8.79 ± 0.3
CAACAAAAGTTATTTACACACAAAAGGCAAGGAAAT [CACACA_site7013] | 8.94 ± 0.47
ACTACGTGGATTAGTTCAAGGGAACACGTCCTATAC [CACACA_negctrl_site1427] | 8.34 ± 0.36
ACTAAACGAATAAATTGTACAAAGAAATATATTCAT [XGTACX_site6766] | 8.6 ± 0.42
TAAAAAATTACATATTGTACAGGCAAAATTACACAT [XGTACX_site1152] | 8.67 ± 0.54
ATATTTCATTTTTGTACACACAACGTTGGAGGGTTT [CACACA_site3043] | 8.89 ± 0.53
AAAGGAAATAAAAACGCACACAGAAATAATATCTAT [CACACA_site457] | 8.8 ± 0.56
TCATATAAATACACGTGTACATATATATATTACAGT [XGTACX_site1954] | 8.74 ± 0.071
AGTTTGCATATGGAAGTGCATTACCTTGAACATCAT | 8.57 ± 0.26
AATATAAAAAATAGTTGTACTATATTTAAATATGAC [XGTACX_site2937] | 8.43 ± 0.35
AAAAAATATATATGCACACACAAAAAAACAAATTAA [CACACA_site1278] | 8.78 ± 0.38

Sequence | gcPBM binding intensity (ln)
AAGGAATAGGCATATACACACAGGTACAGATATATA [CACACA_site4402] | 8.85 ± 0.43
TTTAAATATTACATATGTACTTATAAATATATATAT [XGTACX_site1284] | 9.165 ± 0.021
AAAAAAAAAAAAAACACACAAATCATAAATAAATAT [CACACA_site6362] | 8.46 ± 0.56
TAATAGTATATAAAAAGTACATAATAAGATATGAAA [XGTACX_site1000] | 8.58 ± 0.4
AAAAAAAAAATTGAAAGTACAAATATGTATTATATA [XGTACX_site2455] | 8.27 ± 0.42
TAAAATATGTCATGTGGTACATGAATAGCTTTTATT [XGTACX_site3809] | 8.23 ± 0.32
ATTATGTGCCAATACACACACACATATATATATATA [CACACA_site468] | 9.91 ± 0.44
ATATAAAAAAATAAAACACACACATATATATTATAT [CACACA_site8909] | 8.68 ± 0.42
ATTTAAGCATTATTTTGTACGAAAATAAAAAAATGA [XGTACX_site6958] | 8.55 ± 0.38
TTTTTGTTATATAAAGTGCAGTGACAAGCAGTTTAA | 8.65 ± 0.27
AGTGGTGTTAAATGTTGTACGATTTTGTGTTATTCG [XGTACX_site178] | 8.82 ± 0.6
ATATATATATAATATAGTACGTATAATATATGAATC [XGTACX_site4385] | 9.34 ± 0.32
AAAGGAAAATGTGTAAAAAGAAATGCTAGGTATATA [GTGCAC_negctrl_site699] | 8.93 ± 0.42
TATAATGCTCTTCTTTGTACATATTATGATTATATT [XGTACX_site2332] | 8.97 ± 0.38
TATGTATAATTTCATTGTACTTTTGATATTATCATA [XGTACX_site280] | 8.25 ± 0.37
TATTAGAACATATATGCATGCAATAGATATTCCAAT [TGCATGCA_site297] | 9.875 ± 0.064
TTTCTAAAAATAAGAACACACACATATAAGCATATA [CACACA_site8714] | 8.6 ± 0.64
TTTTTTTAAATATACACACACATTTATACAGATATA [CACACA_site5811] | 8.41 ± 0.4
AGTCTGAATAAAATTACACACATATACAGATATATA [CACACA_site5054] | 8.26 ± 0.4
ATATCATTTTCTAGCACACACATTGTTATTACCTTG [CACACA_site902] | 8.91 ± 0.38
AAGATAATCACAAAATGTACAGGAAATATGACAACC [XGTACX_site3607] | 9.07 ± 0.5
TATGTAACAAAAAAAAGTACACATATATATAGTGTA [XGTACX_site7772] | 8.52 ± 0.39
ACTGCGTTTTTACACGCGCACTGCAATGAACAATAT | 8.56 ± 0.33

Sequence | gcPBM binding intensity (ln)
TTTTCTAAATTAATAATACACACTTGCTAAAATCAT [CACACA_site3207] | 8.34 ± 0.49
AATGGTATAAACAATACACACATAATATATATATTG [CACACA_site4997] | 8.53 ± 0.4
AAGAAAAAGGAACGGAAAAACAAACAAGGGGCCCAA [TGCATGCA_negctrl_site4] | 8.81 ± 0.71
ATTTTTTTTATGAGGTGTACTCATATAATAACTACA [XGTACX_site5074] | 8.83 ± 0.18
TATTTTTTTTTTTAATGTACAAACAAATTATGTTGG [XGTACX_site2873] | 8.43 ± 0.59
TTTTCTAAAGTAAGTTAAGATATGCAAAAAAAAGAA [GTGCAC_negctrl_site242] | 8.91 ± 0.46
TATAAAAGGTAAGAGTGTACAAGTAAAAAATTTTTA [XGTACX_site771] | 8.94 ± 0.39
AATAAAAATTGGTAGGCACACATGGAACTATTAAAA [CACACA_site1257] | 8.86 ± 0.42
ATGAACTATATTAAATCACACATTATCATTTTATAT [CACACA_site4989] | 8.39 ± 0.35
TCGTATATGGATTTTGCACACAATTATAATTTAAAT [CACACA_site868] | 9.04 ± 0.35
TATCCCTTAGAATACACACCCATATGAGCGTGAACT [CACACA_site2951] | 8.37 ± 0.54
TATATATTTTAAAATAGTACATATTATATAACCCAT [XGTACX_site2194] | 8.73 ± 0.43
ATATATATATATATATGTACACATTAATGTTTTTTT [XGTACX_site167] | 10.4 ± 0.24
AAAACTTGTCAGAATGGACACACGAATTAAAGGCCT [CACACA_site1215] | 8.79 ± 0.52
TTATTTTTTATTATGTGTACATAACATCGCGATACA [XGTACX_site4359] | 8.95 ± 0.47
GATTTAGTTATTTAAACATGCAATTTATATAGAATT [TGCATGCA_site47] | 8.66 ± 0.34
CAACATTCGTATATCACACATTTGCATGTTGTCAAT [CACACA_site4470] | 8.79 ± 0.35
TATTTATACATACATACACACATATAGATTTATATT [CACACA_site7851] | 8.54 ± 0.4
ATAAAATATATATTAGTGCACTAAAGGAAAAAAAAT | 9.7 ± 0.31
AATATATATATTAGAGTGCACATAATTATTTGCTAA | 8.77 ± 0.24
TATGTCAAATATATATGTACACAAATATACTATTAA [XGTACX_site2643] | 8.19 ± 0.3
